In a collection of fitness landscapes (doi:10.1016/j.celrep.2020.107928):
The full ranking holds about 81,000 sequences; the median of “one-hybrid fitness for binding parS DNA” is about -0.17, and the highest 2% start at about 0.51. The list shows a part of the results.

B1: Caulobacter ParB omega fusion; a variant is named by its letters at X, in order, B8GW30 (parent)
chain: MESVVVGEPGMSEGRRGLGRGLSALLGEVDAAPAQAPGEQLGGSREAPIEILQRNPDQPRRTFREEDLEDLSNSIREKGVLQPILVRPSPDTAGEYQIVAGERAWRAAQRAGLKTVPIMVRELDDLAVLEIGIIENVQRADLNVLEEALSYKVLMEKFERTQENIAQTIGKSXSHVANXMRLLXLPDEVQSYLVSGELTAXHARAIAAAADPVALAKQIIEGGLSVRETEALARKAPNLSAGKSKGGRPPRVKDTDTQALESDLSSVLGLDVSIDHRGSTGTLTITYATLEQLDDLCNRLTRGI

Variants of: B1
Test: one-hybrid fitness for binding parS DNA (scaled: cognate 1, non-cognate 0); higher = stronger binding
Conditions: with parS DNA site
Procedure, shortened: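 The reporter was HIS3, with the binding site 19 bp from the promoter, in E. coli USO used for bacterial one-hybrid selection of Caulobacter ParB libraries with four specificity codons randomised. Growth was on M9 lacking histidine, with 0.1 mM IPTG and 5 mM 3-AT, for 48 hours at 37°C. Illumina sequencing covered plasmids before and after selection; three replicate libraries were pooled and variants with under 10 reads dropped. A fitness score is the log change in variant-to-wild-type read ratio, rescaled to the cognate and non-cognate references.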

one-hybrid fitness for binding parS DNA, 0.33:
RFKF

one-hybrid fitness for binding parS DNA, ≤ 0.2:
TQAC
RGLY
HVSN
HKNF
PGVD
STNS
RGPL
ETRF
SLEG
ATGQ
LCIY
PWTT
LMRP
YVQS
NDST
GDNT
ARVY
AEVT
YVTV
RPQF
APFV
FWTN
YEEK
DAPI
ALWF
RSDI
VPQM
FAHC
DIYL
RILE
PVKM
HLCY
QNHE
PYIT
YTPE
GETR
DFTS
AKRL
MCSG
LKSA
QFQL
RWNI
SPNI
FASH
AAYC
TSPD
HAKG
LDDR
TETW
CTQR
HIGF
PICG
DEVA
PIHY
WSQY
YTFT
MWPW
QKWA
HSAK
WLCI
CIRT
FCTI
ALIR
HYFR
AAGE
CCLS
QLKW
WMDV
RKME
MGLN
IYFS
THNQ
SCCR
TLNN
QGKT
HQDC
DAPN
VAPV
FSFG
IPFR
WVTC
MVFC
LMHE
SHLS
KNSS
ACNY
MLVQ
QSKL
KYPS
CIYG
VGTF
QETE
AVLL
KTRL
HAMA
RPTT
TPGC
YDGG
TLYW
NDIP
GKSH
RPDH
YKML
AYPP
QHTE
ALQY
GHKI
DPKV
HYKW
TFNV
IHPS
QNFC
YDTT
ANWS
TMNT
EMHA
AQNG
GVFR
NINQ
KFEG
AQLK
NPMT
SNEQ
KLYY
IMKY
NPMS
THAW
SIRA
HNKR
VPVS
SPQQ
SPTV
GVSD
IAKL
SDWV
SRSC
SPGI
MVCV
HRFN
DWAC
PNCM
MGRL
GYEI
TVGT
MEVS
GHPM
SCRR
ADGS
RRFE
MSCV
RFEQ
NDMW
QPMG
WASV
CVKT
EFCR
VNTA
YRSF
HIKC
TKQG
QTLY
EARE
NEEV
IVHC
YFTS
LNLG
YFFT
NQAM
PNNR
NDCV
TDRS
LWHR
VIVV
MQAA
AMDS
STHM
GVPC
QISP
MMRN

one-hybrid fitness for binding parS DNA, 0.208:
RICK

one-hybrid fitness for binding parS DNA, 0.94:
RFNC

one-hybrid fitness for binding parS DNA, 0.239:
RLTW

one-hybrid fitness for binding parS DNA, 0.236:
DTMK

one-hybrid fitness for binding parS DNA, 0.389:
RMCN

one-hybrid fitness for binding parS DNA, 0.317:
RKKH

one-hybrid fitness for binding parS DNA, 0.473:
RAGY

one-hybrid fitness for binding parS DNA, 0.678:
RNMT

one-hybrid fitness for binding parS DNA, 0.911:
RNHS

one-hybrid fitness for binding parS DNA, 0.799:
RHFC

one-hybrid fitness for binding parS DNA, 0.217:
HLCH

one-hybrid fitness for binding parS DNA, 0.211:
RHYF

one-hybrid fitness for binding parS DNA, 0.215:
RGFA

one-hybrid fitness for binding parS DNA, 0.846:
RKKA

one-hybrid fitness for binding parS DNA, 0.987:
RIDS
